± gives the standard deviation of the averaged measurements. Whole data set: some 33,000 sequences, median “E-score (dimensionless, -0.5 to 0.5)” near -0.046, cut for the highest 2% near 0.36. This is one part of the list.

The test system of this assay is T1, SpTbr T-box DNA-binding domain (GST fusion).
T1 sequence: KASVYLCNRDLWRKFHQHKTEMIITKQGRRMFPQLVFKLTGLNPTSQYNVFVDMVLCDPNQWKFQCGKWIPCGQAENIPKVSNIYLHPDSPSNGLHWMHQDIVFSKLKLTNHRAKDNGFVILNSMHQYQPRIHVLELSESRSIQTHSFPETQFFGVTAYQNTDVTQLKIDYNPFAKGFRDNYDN
In words: PBM E-score of 8-mer (E-score (dimensionless, -0.5 to 0.5)); Tbr is Tbrain of the sea star Patiria miniata (Pm) or the sea urchin Strongylocentrotus purpuratus (Sp); higher = stronger binding preference; most listed sequences are background and not binding sites. The conditions noted are these: the construct has about 5 more residues each side. In outline: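 GST-fused Tbr T-box DNA-binding domains (the whole T-box plus about five flanking residues) were expressed in BL21 E. coli at 20 °C and purified by glutathione affinity chromatography. Universal Agilent oligonucleotide arrays were made double-stranded by primer extension, incubated with 200 nM protein in PBS (pH 7.5), then scanned and quantified. Every ungapped 8-mer was scored from probe intensities. The Universal PBM Analysis Suite gave each word an enrichment E-score, averaged over duplicate arrays.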
In the case of CCATACGA, the “PBM E-score of 8-mer” value was -0.166 ± 0.025.
To ACAATCTG belongs -0.0048 ± 0.032; to AGTATGTA, -0.11 ± 0.017; to ACACCGGC, 0.185 ± 0.022.
To CGACTGTA belongs -0.133 ± 0.081; to AAGCAGTC, -0.178 ± 0.019.
To TATCCTAA belongs 0.0265 ± 0.058.
As for CCAGCTCC, the “PBM E-score of 8-mer” value was -0.184 ± 0.037.
With GAATTGCA, the “PBM E-score of 8-mer” value stood at 0.0351 ± 0.036.
To ATACCTAC belongs -0.163 ± 0.011; to GATGACCC, 0.12 ± 0.0038.
To ACTCGAAC belongs -0.0956 ± 0.095; to AGACTGCG, 0.0627 ± 0.0045; to TATTCTGA, 0.0251 ± 0.075.
To CTATGGAG belongs -0.197 ± 0.03.
With AAGTTTAC, the “PBM E-score of 8-mer” value was found to be 0.0364 ± 0.022.
To GCTTGAGA belongs -0.073 ± 0.0077; to AGTACGGC, -0.21 ± 0.041.
To ATAGTTTA belongs -0.165 ± 0.026; to CTAGACGA, -0.055 ± 0.085.
To ACACCGGG belongs 0.0988 ± 0.0072; to AGACTGGG, -0.319 ± 0.017; to ATAAAGCA, -0.0541 ± 0.0029.
For ATATCAAG, the “PBM E-score of 8-mer” value was -0.169 ± 0.098.
Turning to CATACAGG, the “PBM E-score of 8-mer” value is -0.183 ± 0.069.
To AGATGTAA belongs 0.0577 ± 0.039.
To CCCCTGAG belongs -0.123 ± 0.053; to CTATCATC, -0.0143 ± 0.024.
To ACTGAGGG belongs -0.0572 ± 0.017.
Regarding CGGTCCAA, the “PBM E-score of 8-mer” value was -0.173 ± 0.065.
To AGGAACTA belongs -0.0834 ± 0.063; to ATAGGAAG, -0.202 ± 0.0077; to ATGCCAGG, -0.0854 ± 0.07.
For CGTGATCA, the “PBM E-score of 8-mer” value came to 0.212 ± 0.02.
Take AATCGTTA: the “PBM E-score of 8-mer” value was determined as 0.168 ± 0.012.
To TCCACGGA belongs -0.0375 ± 0.11; to ATATGCCC, -0.151 ± 0.026; to GGCGCTGA, 0.155 ± 0.0088.
To ATCATGGC belongs 0.0527 ± 0.065.
To ACATGTCG belongs 0.193 ± 0.043; to GTTTTCAA, -0.0562 ± 0.0072.
Regarding GGAGCATA, the “PBM E-score of 8-mer” value was -0.0848 ± 0.03.
To CCGCCACG belongs 0.0921 ± 0.016; to CACCGTTC, 0.0585 ± 0.0023; to ACTTGGTC, 0.0521 ± 0.045.
To ACTATGGG belongs -0.00804 ± 0.0047; to AGTCGTCC, -0.204 ± 0.026.
To ACTGCCAC belongs 0.262 ± 0.018; to AAGCATAC, -0.132 ± 0.0093.
For the sequence CCAACCGG, the “PBM E-score of 8-mer” value is -0.0391 ± 0.027.
To AGTTCCTC belongs -0.102 ± 0.057.
Regarding TGGACCAA, the “PBM E-score of 8-mer” value is -0.171 ± 0.038.
To ATAGACAC belongs 0.122 ± 0.03; to AGATACAC, 0.142 ± 0.054.
To ACCGGGCT belongs -0.179 ± 0.022; to GCCGATCA, 0.00117 ± 0.051; to GATTCGAA, 0.063 ± 0.011.
Turning to ACTAATTA, the “PBM E-score of 8-mer” value is -0.108 ± 0.018.
Regarding CACCATCC, the “PBM E-score of 8-mer” value worked out at 0.15 ± 0.015.
On to CATCACAC, for which the “PBM E-score of 8-mer” value worked out at 0.451 ± 0.0075.
To AGATTGCT belongs -0.171 ± 0.029; to AAATCAGC, -0.00937 ± 0.072.
To GAACAATC belongs 0.00187 ± 0.0055; to CATGCAGG, -0.0914 ± 0.0066; to CTTCGCCC, -0.0235 ± 0.028.
To AGTGATGC belongs 0.0277 ± 0.014; to GTTGAATA, -0.136 ± 0.0064.
With AAATGAGC, the “PBM E-score of 8-mer” value is -0.157 ± 0.013.
To ATATCCAC belongs 0.0331 ± 0.025; to CGTACCTC, -0.108 ± 0.025; to ATTCGGCG, 0.0846 ± 0.0025.
To AGGCGTAT belongs 0.0269 ± 0.047.
To CAACGCAA belongs 0.156 ± 0.004.
As to GGCGAACA, the “PBM E-score of 8-mer” value was 0.137 ± 0.018.
In the case of ACATGGGG, the “PBM E-score of 8-mer” value was -0.06449 ± 0.00059.
For CCCGGCGG, the “PBM E-score of 8-mer” value is -0.0358 ± 0.092.
To CGTCGTCC belongs -0.141 ± 0.0069; to GCTAACAC, 0.417 ± 0.0044.
To CCCATAAG belongs -0.12 ± 0.083.
Take ACCCTAGG: the “PBM E-score of 8-mer” value is 0.146 ± 0.046.
Turning to AGCCTCCT, the “PBM E-score of 8-mer” value was -0.124 ± 0.048.
As for AATGGCTA, the “PBM E-score of 8-mer” value was -0.134 ± 0.02.
To GGGTATGA belongs -0.0544 ± 0.061.
To CCAAAAGA belongs -0.0816 ± 0.016.
To AGGCGAGC belongs -0.233 ± 0.11; to CACCGACG, 0.233 ± 0.041.

The values above are taken from the supplement of paper PMC4166925.
